From patent US5620954A, “Peptide compositions and uses therefor” (Magainin Pharmaceuticals, Inc., priority 1995, dated 1997)
At least one peptide structure holds a part that was inferred or is arguable (an end, a ring closure or a residue). Peptide text beside a SMILES is read from it.

Experiments:
Experiment in all cases: Antibacterial assay, minimal inhibitory concentration (MIC), microtiter broth dilution
Type in all cases: cell-based
E.coli ATCC strain 25922 = conditions: E. coli ATCC 25922; Mueller Hinton broth; 16-20 hours at 37° C.
Description: (§1) Table I, which follows, indicates the Minimal Inhibitory Concentration (MIC) in μg/ml of Peptides (SEQ ID NO:1) through (SEQ ID NO:27 ) against S. aureus strain ATCC 25923, P. aeruginosa strain ATCC 27853, and E.coli ATCC strain 25922. (Legend) The procedure for the antibacterial assay is based upon the guidelines of the National Committee for Clinical Laboratory Standards, Document M7-T2, Volume 8, No. 8, 1988. Stock solutions of the hereinabove described peptides in accordance with the present invention are prepared at a concentration of 512 μg/ml in sterile deionized distilled water and stored at -70° C. The stock peptide solution is diluted in serial dilutions (1:2) down the wells of a microtiter plate so that the final concentrations of peptides in the wells are 0.25, 0.50, 1, 2, 4, 8, 16, 32, 64, 128, and 256 μg/ml. 1-5×10^5 CFUs/ml of either S. aureus ATCC 25923, E. coli ATCC 25922, or P. aeruginosa ATCC 27853 were added to the wells in full strength Mueller Hinton broth (BBL 11443) from a mid-log culture. The inoculum is standardized spectrophotometrically at 600 nm and is verified by colony counts. The plates are incubated for 16-20 hours at 37° C., and the minimal inhibitory concentration (MIC) for each peptide is determined. Minimal inhibitory concentration is defined as the lowest concentration of peptide which produces a clear well in the microtiter plate.

[1] = test system: P. aeruginosa strain ATCC 27853; conditions: P. aeruginosa ATCC 27853; Mueller Hinton broth; 16-20 hours at 37° C.
Description: as §1

[2] = test system: S. aureus strain ATCC 25923; conditions: S. aureus ATCC 25923; Mueller Hinton broth; 16-20 hours at 37° C.
Description: as §1

CC[C@H](C)[C@H](NC(=O)[C@H](CCCCN)NC(=O)[C@H](CC(C)C)NC(=O)[C@H](C)NC(=O)[C@H](C)NC(=O)[C@H](CCCCN)NC(=O)[C@H](CC(C)C)NC(=O)[C@H](C)NC(=O)[C@H](CCCCN)NC(=O)CNC(=O)[C@H](CC(C)C)NC(=O)[C@H](Cc1ccccc1)NC(=O)[C@H](CO)NC(=O)[C@H](C)NC(=O)[C@H](Cc1ccccc1)NC(=O)CN)C(=O)NCC(=O)N[C@@H](C)C(=O)N[C@@H](CC(N)=O)C(=O)N[C@@H](CC(C)C)C(=O)N[C@@H](CC(C)C)C(=O)NCC(=O)NCC(=O)N[C@H](C(=O)N1CCC[C@H]1C(=O)N[C@@H](CCC(N)=O)C(=O)O)[C@@H](C)O [SEQ ID NO: 14] (H-GFASFLGKALKAALKIGANLLGGTPQ-OH) was tested, and the “Minimal Inhibitory Concentration (MIC), Activity, E. coli” value (E.coli ATCC strain 25922) was 8,16 μg/ml, the “Minimal Inhibitory Concentration (MIC), Activity, P. aeruginosa” value [1] was 64 µg/mL and the “Minimal Inhibitory Concentration (MIC), Activity, S. aureus” value [2] was 8,16 μg/ml.
In the case of CC[C@H](C)[C@H](NC(=O)[C@H](CCCCN)NC(=O)[C@H](CC(C)C)NC(=O)[C@H](C)NC(=O)[C@H](C)NC(=O)[C@H](CCCCN)NC(=O)[C@H](CC(C)C)NC(=O)[C@H](C)NC(=O)[C@H](CCCCN)NC(=O)CNC(=O)[C@H](CC(C)C)NC(=O)[C@H](Cc1ccccc1)NC(=O)[C@H](CO)NC(=O)[C@H](C)NC(=O)[C@@H](N)Cc1ccccc1)C(=O)NCC(=O)N[C@@H](C)C(=O)N[C@@H](CC(N)=O)C(=O)N[C@@H](CC(C)C)C(=O)N[C@@H](CC(C)C)C(=O)NCC(=O)NCC(=O)N[C@H](C(=O)N1CCC[C@H]1C(=O)N[C@@H](CCC(N)=O)C(=O)N[C@@H](CCC(N)=O)C(=O)O)[C@@H](C)O [SEQ ID NO: 15] (H-FASFLGKALKAALKIGANLLGGTPQQ-OH), the “Minimal Inhibitory Concentration (MIC), Activity, E. coli” value (E.coli ATCC strain 25922) is reported as 4 µg/mL, the “Minimal Inhibitory Concentration (MIC), Activity, P. aeruginosa” value [1] is reported as 32 µg/mL and the “Minimal Inhibitory Concentration (MIC), Activity, S. aureus” value [2] is reported as 16 µg/mL.
With CC[C@H](C)[C@H](NC(=O)[C@H](CCCCN)NC(=O)[C@H](CC(C)C)NC(=O)[C@H](C)NC(=O)[C@H](C)NC(=O)[C@H](CCCCN)NC(=O)[C@H](CC(C)C)NC(=O)[C@H](C)NC(=O)[C@H](CCCCN)NC(=O)CNC(=O)[C@H](CC(C)C)NC(=O)[C@H](CCCCN)NC(=O)[C@H](CO)NC(=O)[C@H](C)NC(=O)[C@H](Cc1ccccc1)NC(=O)CN)C(=O)NCC(=O)N[C@@H](C)C(=O)N[C@@H](CC(N)=O)C(=O)N[C@@H](CC(C)C)C(=O)N[C@@H](CC(C)C)C(=O)NCC(=O)NCC(=O)N[C@H](C(=O)N1CCC[C@H]1C(=O)N[C@@H](CCC(N)=O)C(=O)N[C@@H](CCC(N)=O)C(=O)O)[C@@H](C)O [SEQ ID NO: 16] (H-GFASKLGKALKAALKIGANLLGGTPQQ-OH) the “Minimal Inhibitory Concentration (MIC), Activity, E. coli” value (E.coli ATCC strain 25922) was 8,16 μg/ml, the “Minimal Inhibitory Concentration (MIC), Activity, P. aeruginosa” value [1] was 64,128 μg/ml and the “Minimal Inhibitory Concentration (MIC), Activity, S. aureus” value [2] was 16 µg/mL.
CC[C@H](C)[C@H](NC(=O)[C@H](CCCCN)NC(=O)[C@H](CC(C)C)NC(=O)[C@H](C)NC(=O)[C@H](C)NC(=O)[C@H](CCCCN)NC(=O)[C@H](CC(C)C)NC(=O)[C@H](C)NC(=O)[C@H](CCCCN)NC(=O)CNC(=O)[C@H](CC(C)C)NC(=O)[C@H](CCCCN)NC(=O)[C@H](CO)NC(=O)CNC(=O)[C@H](Cc1ccccc1)NC(=O)CN)C(=O)NCC(=O)N[C@@H](C)C(=O)N[C@@H](CC(N)=O)C(=O)N[C@@H](CC(C)C)C(=O)N[C@@H](CC(C)C)C(=O)NCC(=O)NCC(=O)N[C@H](C(=O)N1CCC[C@H]1C(=O)N[C@@H](CCC(N)=O)C(=O)N[C@@H](CCC(N)=O)C(=O)O)[C@@H](C)O [SEQ ID NO: 17] (H-GFGSKLGKALKAALKIGANLLGGTPQQ-OH) was tested, and the “Minimal Inhibitory Concentration (MIC), Activity, E. coli” value (E.coli ATCC strain 25922) was 8,16 μg/ml, the “Minimal Inhibitory Concentration (MIC), Activity, P. aeruginosa” value [1] was 64,128 μg/ml and the “Minimal Inhibitory Concentration (MIC), Activity, S. aureus” value [2] was 32 µg/mL.
CC[C@H](C)[C@H](NC(=O)[C@H](CCCCN)NC(=O)[C@H](CC(C)C)NC(=O)[C@H](C)NC(=O)[C@H](C)NC(=O)[C@H](CCCCN)NC(=O)[C@H](CC(C)C)NC(=O)[C@H](C)NC(=O)[C@H](CCCCN)NC(=O)CNC(=O)[C@H](CC(C)C)NC(=O)[C@H](Cc1ccccc1)NC(=O)[C@H](CO)NC(=O)CNC(=O)[C@H](Cc1ccccc1)NC(=O)CN)C(=O)NCC(=O)N[C@@H](C)C(=O)N[C@@H](CC(N)=O)C(=O)N[C@@H](CCSC)C(=O)N[C@@H](CC(C)C)C(=O)NCC(=O)NCC(=O)N[C@@H](CO)C(=O)N1CCC[C@H]1C(=O)N[C@@H](CCC(N)=O)C(=O)N[C@@H](CCC(N)=O)C(=O)O [SEQ ID NO: 18] (H-GFGSFLGKALKAALKIGANMLGGSPQQ-OH) was tested, and the “Minimal Inhibitory Concentration (MIC), Activity, E. coli” value (E.coli ATCC strain 25922) was 32 µg/mL, the “Minimal Inhibitory Concentration (MIC), Activity, P. aeruginosa” value [1] was 32,64 μg/ml and the “Minimal Inhibitory Concentration (MIC), Activity, S. aureus” value [2] was 64 µg/mL.
In the case of CC[C@H](C)[C@H](NC(=O)[C@H](CCCCN)NC(=O)[C@H](CC(C)C)NC(=O)[C@H](C)NC(=O)[C@H](C)NC(=O)[C@H](CCCCN)NC(=O)[C@H](CC(C)C)NC(=O)[C@H](C)NC(=O)[C@H](CCCCN)NC(=O)CNC(=O)[C@H](CC(C)C)NC(=O)[C@H](Cc1ccccc1)NC(=O)[C@H](CO)NC(=O)CNC(=O)[C@H](Cc1ccccc1)NC(=O)CN)C(=O)NCC(=O)N[C@@H](C)C(=O)N[C@@H](CC(N)=O)C(=O)N[C@@H](CCSC)C(=O)N[C@@H](CC(C)C)C(=O)NCC(=O)NCC(=O)N[C@@H](CO)C(=O)N[C@@H](CC(C)C)C(=O)N[C@@H](CCC(N)=O)C(=O)N[C@@H](CCC(N)=O)C(=O)O [SEQ ID NO: 19] (H-GFGSFLGKALKAALKIGANMLGGSLQQ-OH), the “Minimal Inhibitory Concentration (MIC), Activity, E. coli” value (E.coli ATCC strain 25922) is reported as 8,16 μg/ml, the “Minimal Inhibitory Concentration (MIC), Activity, P. aeruginosa” value [1] is reported as 32,64 μg/ml and the “Minimal Inhibitory Concentration (MIC), Activity, S. aureus” value [2] is reported as 32,64 μg/ml.
